The results in this text go back to paper PMC7819943, “Rice protein-binding microarrays: a tool to detect cis-acting elements near promoter regions in rice”.

The other results are listed elsewhere or left out.

The target in this experiment is T1, OsWOX13 (Oryza sativa, UniProt Q5QMM3 1-267).
T1 sequence: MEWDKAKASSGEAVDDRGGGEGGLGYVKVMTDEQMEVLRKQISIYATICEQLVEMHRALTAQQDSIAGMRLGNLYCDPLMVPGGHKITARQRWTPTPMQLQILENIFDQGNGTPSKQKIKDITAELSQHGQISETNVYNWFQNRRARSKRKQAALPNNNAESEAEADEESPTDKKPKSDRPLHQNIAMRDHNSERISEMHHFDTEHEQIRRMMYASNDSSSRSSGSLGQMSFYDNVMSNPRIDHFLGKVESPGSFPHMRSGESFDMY
As to the kind of experiment: protein-binding microarray (RPBM); PBS, 2% BSA, 51.3 ng/ul salmon testes DNA, 50 uM zinc acetate, 200 nM TF, 25 C, 1 h; high values mean tight binding. The note with it: protein: recombinant; tags: N-terminal polyhistidine and DsRed monomer fusion (pET32a); label: CyDye5-dUTP incorporated in the synthesized complementary strand; 3' TTTTT single-stranded linker to array surface; dsDNA, one strand shown. The gist of the method:
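For the binding signal, per-feature fluorescence intensity was read in arbitrary units on an Axon 4000B scanner. Before scanning, a 2% BSA-blocked custom Agilent array made double-stranded with Cy5-dUTP was washed after 1 h at 25 °C with 200 nM protein and 50 µM zinc acetate. The proteins were Ni–NTA-purified transcription factors with N-terminal polyhistidine and DsRed fusions, expressed in E. coli BL21-CodonPlus.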
With “TGTCATCAAATTGGCATTCATAGCGCTATGTTCATATGTTCGGAGTCACCTAGTGCAG”, the binding signal was 10900 fluorescence intensity (a.u.).

Consider “ACTACTTACTACAAATTGAAAGACGCGTCATGTCTGCTGTCGGAGTCACCTAGTGCAG”, for which the binding signal is 6660 fluorescence intensity (a.u.).

Consider “GCTGATTTTAAGTATAAGCGAAACGGTATATATGCAAATACGGAGTCACCTAGTGCAG”, for which the binding signal was 10600 fluorescence intensity (a.u.).

Consider “TATCTGATTCAAATTTAAATTTAAATTCAAATATTTTCTACGGAGTCACCTAGTGCAG”, for which the binding signal was 11900 fluorescence intensity (a.u.).

Regarding “AATGCTGATGGTTAATTGAGTTTTAATTGTTAGTATTAGTCGGAGTCACCTAGTGCAG”, the binding signal was 14300 fluorescence intensity (a.u.).

Take “TCATAACTTATACACCTGATTGCAGCTAGACAGGGTATGACGGAGTCACCTAGTGCAG”: the binding signal was 11700 fluorescence intensity (a.u.).

For “GAATTGATATACTAATTATAGCAGCATGTAGCTACCGTCCCGGAGTCACCTAGTGCAG”, the binding signal is 24700 fluorescence intensity (a.u.).

Take “ACAAACCAGAGATTAATTACAAACCAGCAAATCCATATCACGGAGTCACCTAGTGCAG”: the binding signal was 4840 fluorescence intensity (a.u.).

Turning to “ATCTTAATTGTCAACGCTGTTTGTGCAATAATCTTCAGCTCGGAGTCACCTAGTGCAG”, the binding signal is 35100 fluorescence intensity (a.u.).

“ACGGTGGCGGGGATGTGGAGGGAGGTGCAGGGGTGCGGGGCGGAGTCACCTAGTGCAG”: the binding signal is 7800 fluorescence intensity (a.u.).

Turning to “TCTCCGGATCAATCATATTAATTTAGCCCTTCTTGATGCACGGAGTCACCTAGTGCAG”, the binding signal is 12500 fluorescence intensity (a.u.).

As for “TATGAATTGGCTATTAAATTGACTATAAATGATTTAGAGCCGGAGTCACCTAGTGCAG”, the binding signal was 37200 fluorescence intensity (a.u.).

As for “CAGACGCATCAATCAACAAAATAAATAAATAAATAAACAACGGAGTCACCTAGTGCAG”, the binding signal was 21800 fluorescence intensity (a.u.).

For the sequence “ATTTAATTTTACATGTTAATAAAGTGATATATTATATATTCGGAGTCACCTAGTGCAG”, the binding signal was 5830 fluorescence intensity (a.u.).

Consider “ATTTGATAATTTAACACTCCTTAAAACATGTTTCCATTATCGGAGTCACCTAGTGCAG”, for which the binding signal is 10700 fluorescence intensity (a.u.).

Take “ATTAACTATTAAAGATGATCATATAAATTAAGAAGCATAGCGGAGTCACCTAGTGCAG”: the binding signal was 8220 fluorescence intensity (a.u.).

For the sequence “CCTGGCTGATCGATAATTAATCCGTCCTCGCCGTCGCCATCGGAGTCACCTAGTGCAG”, the binding signal was 15400 fluorescence intensity (a.u.).

On to “TATGATTGCAGGTCATTGCTGACCGTGGAATCGAGCTGTTCGGAGTCACCTAGTGCAG”, for which the binding signal is 35400 fluorescence intensity (a.u.).

On to “TTTAAATGACTGAAAATTTCGCGGTCGAATCAGCGAGATGCGGAGTCACCTAGTGCAG”, for which the binding signal is 19400 fluorescence intensity (a.u.).

Take “GGAAATTTCGTGCCTGTCATTGTGTAATGGACTCAAGTACCGGAGTCACCTAGTGCAG”: the binding signal is 9410 fluorescence intensity (a.u.).

“GTGTTTTGAGTAATTGAGATGATCGTGAAATGTAGTGCTTCGGAGTCACCTAGTGCAG”: the binding signal is 11900 fluorescence intensity (a.u.).

Turning to “GGTTTATTCAATTATGAAATTTTACTCCCCTATGTACTAACGGAGTCACCTAGTGCAG”, the binding signal is 11100 fluorescence intensity (a.u.).

Consider “GCTGCCTAATTTTGTCCGAGATGTGCCCATCAAATCCAACCGGAGTCACCTAGTGCAG”, for which the binding signal is 3880 fluorescence intensity (a.u.).

For the sequence “CGTAATTAAGTCCATGCACGCAACCTAATCATGTTCAACACGGAGTCACCTAGTGCAG”, the binding signal is 9810 fluorescence intensity (a.u.).

Turning to “ACCATTCATTTCTATCTATTTTCTTAATAACTGTGTCTAACGGAGTCACCTAGTGCAG”, the binding signal is 4070 fluorescence intensity (a.u.).

On to “TATTTGATAGAGTATATACGTAATACAGTAATATGATGAGCGGAGTCACCTAGTGCAG”, for which the binding signal is 10100 fluorescence intensity (a.u.).

On to “TGCACTGGATTAGCTAAAAGATTGCGACATCAACCACAGCCGGAGTCACCTAGTGCAG”, for which the binding signal was 4440 fluorescence intensity (a.u.).

As to “ATGATTGTTGGAGCAAGGCCCAGCCCAAGGTAGCGTACATCGGAGTCACCTAGTGCAG”, the binding signal was 13400 fluorescence intensity (a.u.).

On to “CTAAATTTCCTCCAAAATCCACATGTAATGTGCCATTCCACGGAGTCACCTAGTGCAG”, for which the binding signal was 3650 fluorescence intensity (a.u.).

In the case of “AGACAAATAGGCAATGCATTAATTGTACATGGATAGGATGCGGAGTCACCTAGTGCAG”, the binding signal was 4280 fluorescence intensity (a.u.).

Consider “TATAATTTATTTTGTTATTAATTTATATTTAATACTTGTGCGGAGTCACCTAGTGCAG”, for which the binding signal was 42100 fluorescence intensity (a.u.).

As to “TCTTCACCCATTAATGAGGGATTGACATGGCTGTCCCTCGCGGAGTCACCTAGTGCAG”, the binding signal was 11100 fluorescence intensity (a.u.).

“CTAGATTATTGAGTCAGATTACTATAAGCTAGATTGTTATCGGAGTCACCTAGTGCAG”: the binding signal is 17400 fluorescence intensity (a.u.).

Take “TTTGAATTTAAATTCAAATTTGAATTGGATATATAAACTTCGGAGTCACCTAGTGCAG”: the binding signal was 6240 fluorescence intensity (a.u.).

For the sequence “AATTAAAATGACTGGGCTGCTGCATTACAATCTACAAGTCCGGAGTCACCTAGTGCAG”, the binding signal is 4150 fluorescence intensity (a.u.).

With “ATAAATTATCTTTGAATTTTGAGCATATCTTCATTTCGAACGGAGTCACCTAGTGCAG”, the binding signal is 17500 fluorescence intensity (a.u.).

Consider “TTTTGATTTTGTAGTAGTGTGCTATAAGTACATGTGTCTACGGAGTCACCTAGTGCAG”, for which the binding signal is 3730 fluorescence intensity (a.u.).

Turning to “GCAAAGGCATGATTGATGTATACCTTATGACTTCCTAATTCGGAGTCACCTAGTGCAG”, the binding signal is 18800 fluorescence intensity (a.u.).

Consider “CGCGTTTTAATTTGCATGTTTCCATATTGTAAGAATTTAACGGAGTCACCTAGTGCAG”, for which the binding signal was 3780 fluorescence intensity (a.u.).

For the sequence “GGAAATTGGGTAAAATTTTCAATCTAACTCACCAAACCCACGGAGTCACCTAGTGCAG”, the binding signal is 31000 fluorescence intensity (a.u.).

In the case of “TATGGTTAATTATGTATTTATCGACAACGGGATGTTCGTACGGAGTCACCTAGTGCAG”, the binding signal was 15000 fluorescence intensity (a.u.).

Regarding “ATGATTTGATTTTGCAGTTAGCAATGTTGTATTCAAAATGCGGAGTCACCTAGTGCAG”, the binding signal was 30700 fluorescence intensity (a.u.).
